Laboratory results reported in PubChem BioAssay (NCI).
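Each compound was tested at five concentrations against cells in 96-well plates for 48 hours. GI50 marks 50% less growth.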 A number of entries come with more than one value. The other results are left out here. An entry can have further records. A record mostly stands for its own series of concentrations, not given here; some values may only mark the edge of a range.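 The concentration for full growth arrest is given as TGI.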

How the values were obtained:
Assay in all cases: growth of human tumour cells (NCI), 48 h
NCI/ADR-RES ovarian = test system: NCI/ADR-RES ovarian
SN12C renal = test system: SN12C renal
SNB-75 CNS = test system: SNB-75 CNS
ACHN renal = test system: ACHN renal
BT-549 breast = test system: BT-549 breast
NCI-H226 lung = test system: NCI-H226 lung
CCRF-CEM leukemia = test system: CCRF-CEM leukemia
DU-145 prostate = test system: DU-145 prostate
NCI-H460 lung = test system: NCI-H460 lung
TK-10 renal = test system: TK-10 renal
U251 CNS = test system: U251 CNS
SW-620 colon = test system: SW-620 colon
HS 578T breast = test system: HS 578T breast
SK-OV-3 ovarian = test system: SK-OV-3 ovarian
SK-MEL-5 melanoma = test system: SK-MEL-5 melanoma
SK-MEL-28 melanoma = test system: SK-MEL-28 melanoma
786-0 renal = test system: 786-0 renal
SF-539 CNS = test system: SF-539 CNS
SR leukemia = test system: SR leukemia
OVCAR-8 ovarian = test system: OVCAR-8 ovarian
HCT-116 colon = test system: HCT-116 colon
A549 NSCLC = test system: A549 NSCLC
UACC-257 melanoma = test system: UACC-257 melanoma
NCI-H522 lung = test system: NCI-H522 lung
COLO 205 colon = test system: COLO 205 colon
OVCAR-5 ovarian = test system: OVCAR-5 ovarian
HCT-15 colon = test system: HCT-15 colon
MALME-3M melanoma = test system: MALME-3M melanoma
NCI-H23 lung = test system: NCI-H23 lung
HOP-62 NSCLC = test system: HOP-62 NSCLC
UO-31 renal = test system: UO-31 renal
IGROV1 ovarian = test system: IGROV1 ovarian
A498 renal = test system: A498 renal
SK-MEL-2 melanoma = test system: SK-MEL-2 melanoma
OVCAR-4 ovarian = test system: OVCAR-4 ovarian
MOLT-4 leukemia = test system: MOLT-4 leukemia
HT29 colon = test system: HT29 colon
RXF 393 renal = test system: RXF 393 renal
HOP-92 NSCLC = test system: HOP-92 NSCLC
SNB-19 CNS = test system: SNB-19 CNS
KM12 colon = test system: KM12 colon
SF-295 CNS = test system: SF-295 CNS
SF-268 CNS = test system: SF-268 CNS
OVCAR-3 ovarian = test system: OVCAR-3 ovarian
RPMI-8226 leukemia = test system: RPMI-8226 leukemia
M14 melanoma = test system: M14 melanoma

## CCCCCCCCCC[C@@H](O)[C@H]1CC[C@@H]([C@H]2CC[C@H]([C@H](O)CCCCCCCCCC[C@@H]3CC(CC(C)=O)C(=O)O3)O2)O1 (stereo partly drawn)
NCI/ADR-RES ovarian
  TGI: 3.24 µM and > 100 µM
SN12C renal
  TGI: 7.39 µM and 76.3 µM
SNB-75 CNS
  TGI: 7.8 µM and > 100 µM
ACHN renal
  TGI: 8.96 µM and > 100 µM
BT-549 breast
  TGI: 9.36 µM and > 100 µM
NCI-H226 lung
  TGI: 4.24 µM and 45.1 µM

## C[C@H]1CC(=O)[C@@]2(O)C#C/C=C\C#C[C@@H]3Nc4c(cc(O)c5c4C(=O)c4ccccc4C5=O)[C@]24O[C@]314
CCRF-CEM leukemia
  TGI: 18.5 nM and 267 nM
DU-145 prostate
  TGI: 15.1 nM and 519 nM
NCI-H460 lung
  TGI: 12.7 nM and 547 nM
TK-10 renal
  TGI: 318 nM and > 25 µM
NCI-H226 lung
  TGI: 365 nM and 5.71 nM

## Nc1ncnc2c(C3OC(CO)C(O)C3O)c[nH]c12 (stereo not drawn)
U251 CNS
  TGI: 693 nM and > 32.8 µM
SW-620 colon
  TGI: 393 nM and 4.89 µM
HS 578T breast
  TGI: 33.8 nM and 4.34 µM
SK-OV-3 ovarian
  TGI: 6.08 nM and > 100 µM
SK-MEL-5 melanoma
  TGI: 29.6 nM and 457 nM
ACHN renal
  TGI: 268 nM and < 11.6 nM

## O=C1/C(=C/c2ccc(Cl)c(Cl)c2)CN(C(=O)CCN2CCOCC2)C/C1=C\c1ccc(Cl)c(Cl)c1
U251 CNS
  GI50: 23.2 nM, 784 nM, 411 nM
  TGI: 71.7 nM, 2.05 µM, 1.4 µM
SK-MEL-28 melanoma
  GI50: 23.7 nM, 2.11 µM, 1.83 µM
  TGI: 58.1 nM, 4.12 µM, 3.72 µM
786-0 renal
  GI50: 2.37 nM, 1.5 µM, 194 nM
  TGI: 4.66 nM, 2.87 µM, 398 nM
SF-539 CNS
  GI50: 12.6 nM, 1.41 µM, 509 nM
  TGI: 30.8 nM, 2.96 µM, 1.89 µM
SR leukemia
  GI50: 5.11 nM and 111 nM
  TGI: 9.89 nM and 401 nM
OVCAR-8 ovarian
  GI50: 3.3 nM, 204 nM, 2.7 µM
  TGI: 9.04 nM, 437 nM, 6.6 µM
HCT-116 colon
  GI50: 2.62 nM, 240 nM, 358 nM
  TGI: 10.4 nM, 746 nM, 1.07 µM
CCRF-CEM leukemia
  GI50: 4.2 nM, 272 nM, 287 nM
  TGI: > 10 µM, 727 nM, 658 nM
A549 NSCLC
  GI50: 13.5 nM, 2.59 µM, 2.27 µM
  TGI: 63.9 nM, 6.38 µM, 5.27 µM
UACC-257 melanoma
  GI50: 31.8 nM, 2.26 µM, 2.24 µM
  TGI: 97.6 nM, 5.32 µM, 4.21 µM
NCI-H522 lung
  GI50: 5.55 nM, 1.43 µM, 238 nM
  TGI: 19.4 nM, 2.78 µM, 674 nM
COLO 205 colon
  GI50: 3.77 nM, 1.83 µM, 1.41 µM
  TGI: 13.9 nM, 3.35 µM, 3.79 µM
OVCAR-5 ovarian
  GI50: 23.9 nM, 1.81 µM, 2.08 µM
  TGI: 65 nM, 3.38 µM, 3.76 µM
HCT-15 colon
  GI50: 2.49 nM, 559 nM, 276 nM
  TGI: 9.93 nM, 1.85 µM, 758 nM
MALME-3M melanoma
  GI50: 32.7 nM, 2.11 µM, 2.18 µM
  TGI: 89.2 nM, 4.04 µM, 4.09 µM
NCI-H23 lung
  GI50: 12.6 nM, 1.99 µM, 2.55 µM
  TGI: 75 nM, 4.25 µM, 5.91 µM
HOP-62 NSCLC
  GI50: 9.48 nM, 3.13 µM, 2.26 µM
  TGI: 33.5 nM, 7.62 µM, 4.86 µM
UO-31 renal
  GI50: 17.3 nM, 1.82 µM, 1.77 µM
  TGI: 33.5 nM, 3.38 µM, 3.26 µM
IGROV1 ovarian
  GI50: 6.47 nM, 2.13 µM, 1.29 µM
  TGI: 20.9 nM, 4.55 µM, 3.02 µM
A498 renal
  GI50: 46.1 nM and 2.55 µM
  TGI: 91.5 nM and 6.52 µM
SK-MEL-2 melanoma
  GI50: 14.5 nM, 2.13 µM, 1.81 µM
  TGI: 39.9 nM, 4.91 µM, 3.61 µM
OVCAR-4 ovarian
  TGI: 23.9 nM and 3.58 µM
MOLT-4 leukemia
  TGI: 26.4 nM and 528 nM
HT29 colon
  GI50: 5.59 nM and 303 nM
  TGI: 29.6 nM and 1.04 µM
SN12C renal
  GI50: 1.91 nM, 1.6 µM, 449 nM
  TGI: 3.94 nM, 2.97 µM, 1.69 µM
NCI-H460 lung
  GI50: 13.4 nM, 2.1 µM, 1.78 µM
  TGI: 40 nM, 4.28 µM, 4.06 µM
RXF 393 renal
  GI50: 2.72 nM, 1.92 µM, 1.32 µM
  TGI: 7.21 nM, 3.43 µM, 2.67 µM
TK-10 renal
  GI50: 31.9 nM and 2.78 µM
  TGI: 92.4 nM and 6.69 µM
HOP-92 NSCLC
  GI50: 71.7 nM, 2.34 µM, 1.78 µM
  TGI: 294 nM, 5.12 µM, 4.19 µM
SNB-75 CNS
  GI50: 113 nM, 2.18 µM, 2.89 µM
  TGI: 240 nM, 5.42 µM, 7.83 µM
SNB-19 CNS
  GI50: 1.8 µM and 169 nM
  TGI: > 10 µM, 4.04 µM, 420 nM
KM12 colon
  GI50: 3.06 nM, 342 nM, 165 nM
SF-295 CNS
  GI50: 10.3 nM, 2.32 µM, 527 nM
  TGI: 43.4 nM, 5.36 µM, 1.97 µM
SK-OV-3 ovarian
  GI50: 33.9 nM, 2.26 µM, 2.55 µM
  TGI: 95.6 nM, 4.43 µM, 6.35 µM
SF-268 CNS
  GI50: 4.74 nM, 1.38 µM, 1.19 µM
  TGI: 21.6 nM, 4.5 µM, 2.92 µM
SK-MEL-5 melanoma
  GI50: 19.6 nM, 2.67 µM, 1.85 µM
  TGI: 45.8 nM, 4.25 µM, 3.49 µM
ACHN renal
  GI50: 22.8 nM, 1.78 µM, 1.48 µM
  TGI: 59.9 nM, 3.26 µM, 3.18 µM
OVCAR-3 ovarian
  TGI: 17.2 nM and 2.38 µM
RPMI-8226 leukemia
  GI50: 1.48 nM, 193 nM, 128 nM
  TGI: 9.15 nM, 509 nM, 429 nM
M14 melanoma
  GI50: 14.8 nM, 1.8 µM, 1.83 µM
  TGI: 32.6 nM, 3.21 µM, 3.45 µM
